# Measurements published in PubChem BioAssay AID588342 (National Center for Advancing Translational Sciences (NCATS), 2011).
# Values joined by “and” are separate entries in the source; they are usually repeats but may differ in a detail not shown here. Equal entries are not always repeated. Among all 360,000 compounds or so, about 25,000 (6.9%) were called active. The shares of active, inactive and inconclusive entries below differ from those in the screen. Calls come from the whole dose curve; as a rule, active = well fitted inhibition curve with a large enough effect; inconclusive = small, poorly fitted or top-dose-only effect; inactive = flat fitted curve, though single readings scatter. A potency beside an inconclusive call is a rough fit, not a confirmed value.
# Target: Luciferin 4-monooxygenase (Photinus pyralis) (UniProt P08659)
# Sequence of UniProt P08659 (P08659 whole entry, looked up): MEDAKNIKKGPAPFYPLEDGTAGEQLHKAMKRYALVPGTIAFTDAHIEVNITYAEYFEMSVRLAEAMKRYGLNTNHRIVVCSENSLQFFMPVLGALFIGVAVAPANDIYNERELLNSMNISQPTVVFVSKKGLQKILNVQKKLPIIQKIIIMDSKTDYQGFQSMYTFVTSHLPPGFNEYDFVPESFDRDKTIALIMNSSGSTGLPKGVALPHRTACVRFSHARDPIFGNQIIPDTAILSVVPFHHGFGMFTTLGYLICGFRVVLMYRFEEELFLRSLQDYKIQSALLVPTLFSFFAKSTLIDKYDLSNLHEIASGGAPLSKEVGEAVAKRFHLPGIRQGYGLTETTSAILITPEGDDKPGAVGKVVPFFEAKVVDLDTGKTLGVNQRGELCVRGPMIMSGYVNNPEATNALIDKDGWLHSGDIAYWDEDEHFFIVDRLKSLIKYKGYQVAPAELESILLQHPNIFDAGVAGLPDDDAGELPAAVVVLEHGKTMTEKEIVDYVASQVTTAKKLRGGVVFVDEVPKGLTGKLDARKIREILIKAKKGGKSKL
# Test: qHTS profiling assay for firefly luciferase inhibitor/activator using purifed enzyme and Km concentrations of substrates (counterscreen for miR-21 project); note: nearly all actives have a fitted effect of over 55% in size
# Conditions: purified FLuc, luminescence inhibition; series mostly up to 57.5 µM
# In short: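 Purified P. pyralis luciferase (10nM final) with 10uM D-luciferin and 10uM ATP (Km levels) in 50mM Tris acetate pH 7.5, 10mM Mg acetate, 0.01% Tween-20, 0.05% BSA; qHTS 6-point titration, ~60 µM downward; luminescence read.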
# Potency is the fitted concentration of half-maximal effect; tags give direction and shape of the fitted curve.
row,SMILES,Potency
1,Cc1ccc(OCCCCn2cnc3ccccc32)cc1,"inconclusive: 16.9 µM [inhibitor, partial curve] and inconclusive: 26.9 µM [inhibitor, partial curve]"
2,CC1(C)Cc2c(sc3nc(-c4ccccc4)n(N)c(=O)c23)CO1,"inconclusive: 23.9 µM [inhibitor, partial curve]"
3,O=C(/C=C/c1cccs1)N1CCc2ccccc21,active: 0.478 µM
4,CCCc1cc(C(=O)Nc2sc3c(c2C#N)CCC3)no1,"inconclusive: 23.9 µM [inhibitor, single point]"
5,Cc1ccc(SCCN2CCN(CC(C)C)CCC2=O)cc1,"inconclusive: 21.3 µM [inhibitor, partial curve, poor fit]"
6,COc1ccc(-c2csc(-n3ncc(C(=O)O)c3C(F)(F)F)n2)cc1,"inconclusive: 26.9 µM [inhibitor, single point]"
7,COc1ccc2cc(C3CC(c4ccco4)=NN3C(=O)CCC(=O)O)c(Cl)nc2c1 (stereo unspecified),"inconclusive: 16.9 µM [inhibitor, partial curve]"
8,Cc1ccc(S(=O)(=O)c2nnn3c2nc(NCc2ccc4c(c2)OCO4)c2sccc23)cc1,inactive
9,C=CCn1c(SCC(=O)c2ccccc2)nnc1-c1cc2ccccc2o1,"inconclusive: 37.9 µM [inhibitor, partial curve, poor fit]"
10,O=[N+]([O-])c1cccc(-c2csc(Nc3ccccc3)n2)c1,active: 13.5 µM
11,COc1ccc(CCC(=O)Nc2nc3ccccc3[nH]2)cc1,"inconclusive: 4.26 µM [inhibitor, single point]"
12,CCc1cc(C(=O)NCC2CCCO2)sc1C (stereo unspecified),"inconclusive: 16.9 µM [inhibitor, partial curve, poor fit]"
13,C=CCSc1nc(C)c2cc(C)cc(C)c2n1,"inconclusive: 26.9 µM [inhibitor, partial curve, poor fit]"
14,CC(C)Cc1nn2c(=O)cc(COC(=O)CNC(=O)c3ccc(C(C)(C)C)cc3)nc2s1,"inconclusive: 16.9 µM [inhibitor, partial curve]"
15,Clc1cc2nc3ccccn3c2cc1Cl,"inconclusive: 19 µM [inhibitor, partial curve, poor fit]"
16,CCOCCCNC(=O)/C(C#N)=C/c1cc(Br)c(O)c(Br)c1,"inconclusive: 37.9 µM [inhibitor, partial curve, poor fit]"
17,Cc1cc2nc(C(C)(C)C)cc(N)n2n1,"inconclusive: 30.1 µM [inhibitor, partial curve, poor fit]"
18,O=S(=O)(c1cccc(-c2nc3ccccc3s2)c1)N1CCOCC1,"inconclusive: 30.1 µM [inhibitor, partial curve, poor fit]"
19,Cc1[nH]n(-c2ccc(Cl)cc2)c(=O)c1N=Nc1cccnc1,"inconclusive: 2.39 µM [inhibitor, full curve]"
20,Cc1ccn2cc(-c3cccc(NS(C)(=O)=O)c3)nc2c1,active: 6.75 µM
21,CC[n+]1c(S(=O)(=O)[O-])ccc2ccc(C)cc21,"inconclusive: 30.1 µM [inhibitor, partial curve, poor fit]"
22,CCOC(=O)c1c(N)sc2c1CCC(CC)C2 (stereo unspecified),"inconclusive: 37.9 µM [inhibitor, partial curve, poor fit]"

row,SMILES,Potency
1,CC1S/C(=N\N=C\c2cccc([N+](=O)[O-])c2)N(C(C)(C)C)C1=O (stereo unspecified),"inconclusive: 19 µM [inhibitor, partial curve]"
2,O=C(Nc1nnc(C2CC2)s1)c1ccco1,"inconclusive: 26.9 µM [inhibitor, partial curve, poor fit]"
3,CCc1ccc(C(=O)COC(=O)C(Cc2c[nH]c3ccccc23)NC(=O)c2ccc(CC)cc2)cc1 (stereo unspecified),"inconclusive: 23.9 µM [inhibitor, partial curve, poor fit]"
4,Cc1ccc(NC(=O)CSc2nnc(-c3nnn(-c4ccc(F)cc4)c3C)o2)cc1Br,"inconclusive: 23.9 µM [inhibitor, partial curve, poor fit]"
5,Cc1cc(/C(N)=N/OC(=O)Nc2ccccc2)no1,"inconclusive: 16.9 µM [inhibitor, partial curve]"
6,Cc1cc(=O)[nH]c(SCC(=O)Nc2cc(S(=O)(=O)N(C)C)ccc2Cl)n1,"inconclusive: 15.1 µM [inhibitor, partial curve]"
7,Cc1ccccc1NC(=O)CNC(=O)Cc1cccc2ccccc12,"inconclusive: 19 µM [inhibitor, partial curve, poor fit]"
8,Cc1ccc2c(c1)C1CN(C)CCC1N2C(=O)COc1ccc(N(C)C(=O)c2ccccc2)cc1 (stereo unspecified),"inconclusive: 21.3 µM [inhibitor, single point]"
9,Cc1ccccc1OCC(=O)Nc1cccc2nsnc12,"inconclusive: 33.8 µM [inhibitor, partial curve, poor fit]"
10,O=C(NCCN1C(=O)S/C(=C\c2ccc(F)cc2)C1=O)c1cccc(S(=O)(=O)N2CCOCC2)c1,"inconclusive: 23.9 µM [inhibitor, partial curve]"
11,COc1ccc(-c2cc(C(=O)Oc3ccc(C)cc3)c3ccccc3n2)cc1,"inconclusive: 10.7 µM [inhibitor, partial curve]"
12,Nn1c(SCC(=O)N2CCCC2=O)nnc1-c1cccs1,"inconclusive: 21.3 µM [inhibitor, single point]"
13,CCc1ccc(C(C)NC(=O)C2CCCO2)cc1 (stereo unspecified),inactive
14,COc1ccccc1C(CCN(Cc1ccccc1)C(C)=O)c1ccco1 (stereo unspecified),"inconclusive: 26.9 µM [inhibitor, partial curve, poor fit]"
15,CN(CC(=O)Nc1cccc(F)c1)C(=O)c1cc(-c2ccco2)nc2ccccc12,"inconclusive: 9.53 µM [inhibitor, partial curve]"
16,COc1ccc(CCNc2cc(C)nc3c(-c4ccccc4OC)cnn23)cc1OC,inactive
17,O=C(CNC(=O)Cc1ccccc1)NCC(=O)OCc1ccc(C(=O)c2ccccc2)cc1,inactive
18,CCN(CC)S(=O)(=O)c1cccc(C(=O)NN2Cc3ccccc3C2=N)c1,inactive
19,CCCCC(=O)Nc1ccc(C(=O)NNC(=S)NC(=O)c2ccco2)cc1,"inconclusive: 30.1 µM [inhibitor, single point]"
20,COc1ccccc1OC(=O)c1ccc2nsnc2c1,"inconclusive: 16.9 µM [inhibitor, partial curve, poor fit]"
21,CCSc1nnc(NC(=O)CSc2nc3c(cc2C#N)CCCC3)s1,active: 12 µM
22,COc1ccc(/C=N/NC(=O)c2[nH]ncc2Br)c(OC)c1,active: 2.39 µM

row,SMILES,Potency
1,O=C(COC(=O)c1cccs1)Nc1ccc(F)c(F)c1,"inconclusive: 15.1 µM [inhibitor, partial curve]"
2,Cc1ccc(NC(=O)Cn2nnc(C(=O)Nc3ccc(C)c(C)c3)c2N)cc1,"inconclusive: 4.26 µM [inhibitor, partial curve, poor fit]"
3,O=C(CSc1nnc(N2CCOCC2)n1-c1cccc(F)c1)N1CCN(c2ccccn2)CC1,inactive
4,COc1cccc(C(=O)Nc2nc3ccc(S(=O)(=O)N4CCCC4)cc3s2)c1,"inconclusive: 30.1 µM [inhibitor, single point]"
5,O=c1cc(N2CCN(c3ccccc3Cl)CC2)[nH]c(=O)n1Cc1ccc(F)cc1,"inconclusive: 19 µM [inhibitor, partial curve, poor fit]"
6,Fc1c(F)c(C(F)(F)F)c(F)c(F)c1N/N=C\c1cccs1,"inconclusive: 26.9 µM [inhibitor, single point]"
7,CCCCNC(=O)Nc1ccccc1CC,inactive
8,O=[N+]([O-])c1nn(-c2ccc3c(c2)OCCO3)n(O)c1=NCCC1=CCCCC1,"inconclusive: 3.79 µM [inhibitor, partial curve]"
9,COc1ccc(/C=C/c2ccc3c(Br)ccc(O)c3n2)cc1,active: 5.36 µM
10,O=C(CCS(=O)(=O)c1ccc(Cl)cc1)Nc1nc(-c2ccncc2)cs1,inactive
11,O=C(O)CCC(=O)Nc1ccc(-n2ccc(C(F)(F)F)n2)cc1,inactive
12,Nc1nonc1C(=Nc1ccc(Br)cc1)NO,inactive
13,COc1ccc(/C=N/NC(=O)c2cc(-c3ccc(C)cc3C)nc3ccccc23)cc1COC(C)=O,"inconclusive: 10.7 µM [inhibitor, partial curve]"
14,Cc1nnc(NC(=O)c2ccccc2F)s1,"inconclusive: 33.8 µM [inhibitor, partial curve, poor fit]"
15,O=C(NCCc1ccccc1)c1ccc2nc(N3CCCCC3)sc2c1,"inconclusive: 16.9 µM [inhibitor, partial curve]"
16,Cc1csc(NC(=O)c2cc(C)on2)n1,active: 10.7 µM
17,Cc1ccccc1-c1ccnc2[nH]n(-c3ccccc3)c(=O)c12,"inconclusive: 13.5 µM [inhibitor, partial curve] and inconclusive: 26.9 µM [inhibitor, single point]"
18,Clc1ccc(C2=Nc3cc(Cl)ccc3OC2)cc1,active: 7.57 µM
19,O=C(COc1ccc(NC(=O)c2ccccc2[N+](=O)[O-])cc1)c1ccc(F)cc1,"inconclusive: 23.9 µM [inhibitor, single point]"
20,CC(Cc1cccs1)NC(=S)Nc1ccc(Cl)c(Cl)c1 (stereo unspecified),"inconclusive: 26.9 µM [inhibitor, partial curve, poor fit]"
21,Cn1c(N)c(C(=O)CSc2ccccn2)c(=O)n(C)c1=O,"inconclusive: 26.9 µM [inhibitor, partial curve, poor fit]"
22,CCn1c(C)nc2cc(C(=O)N/N=C/c3ccc(OC)cc3)ccc21,"inconclusive: 37.9 µM [inhibitor, partial curve, poor fit]"
